Test results reported in the BET-seq Pho4 binding data (Le et al. 2018).
The other results are listed elsewhere or left out. The energies were worked out here from pooled read counts, against the library average; single values are noisy.

Each sequence was assayed against T1, Pho4 (S. cerevisiae) (UniProt P07270) (assay: relative binding free energy (BET-seq); higher = weaker binding). Settings: reference: library average.
T1 sequence: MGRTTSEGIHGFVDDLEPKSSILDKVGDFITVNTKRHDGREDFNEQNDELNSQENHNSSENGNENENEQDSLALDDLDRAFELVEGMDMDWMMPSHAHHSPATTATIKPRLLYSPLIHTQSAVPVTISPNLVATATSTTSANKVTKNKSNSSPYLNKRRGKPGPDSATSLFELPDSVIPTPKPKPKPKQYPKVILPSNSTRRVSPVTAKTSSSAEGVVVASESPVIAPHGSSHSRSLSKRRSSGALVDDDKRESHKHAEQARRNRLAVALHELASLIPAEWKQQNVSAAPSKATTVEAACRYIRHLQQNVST

Sequence	relative binding free energy [kcal/mol]
TCTTGCACGTGGTAAG	-0.03
AGGTGCACGTGTGACT	-0.06
TTTTGCACGTGCGCTG	0
CGGCGCACGTGGCAGG	-0.18
CTGGACACGTGCTGGG	-0.03
CAGTTCACGTGAGGAT	0.42
GTTTGCACGTGTGTAA	0.03
TGCGGCACGTGAATTG	0.09
TGGGGCACGTGAATTG	0.25
TGTCGCACGTGGGTTC	-0.12
TAGATCACGTGGGTAG	0.09
AGGTTCACGTGGTAAA	0.28
GGATGCACGTGATGAG	0
TTTCCCACGTGGGTTG	-0.09
TAGTACACGTGCGATG	0.08
ATCGTCACGTGTATCG	0.33
CGTTTCACGTGGACGT	0.42
TGTTGCACGTGGGACG	-0.18
GATTTCACGTGTTAGC	0.36
TGGTGCACGTGAAAAT	0.2
CAGGTCACGTGTAGTG	0.22

Sequence	relative binding free energy [kcal/mol]
ATGTTCACGTGTTGTA	0.31
TTTTTCACGTGAGGGG	0.45
GTGGTCACGTGGCGGA	0.04
GTGTGCACGTGAATGC	0.23
GTGAGCACGTGGGCTA	-0.14
AGGAGCACGTGTATGA	-0.07
GGCTACACGTGGGTTT	-0.08
AATTTCACGTGATAAG	0.33
CGTGTCACGTGACGTT	0.31
GCGTTCACGTGGGGGA	0.21
GCAGGCACGTGGATGG	-0.03
ATTGTCACGTGAGAGG	0.12
CTTAGCACGTGCGGTG	-0.17
CGGATCACGTGATAGG	0.27
TGTGTCACGTGAATCT	0.16
TGATTCACGTGGGTTC	0.27
TATTTCACGTGATGGA	0.41
GTATTCACGTGGCGAT	0.23
CTGAGCACGTGGGTCT	-0.15
TGATACACGTGGTGAT	0.01
GTCAGCACGTGATGGT	0.15

Sequence	relative binding free energy [kcal/mol]
GATCGCACGTGGGACG	0.13
GTGGCCACGTGTCGGG	0
GCTGGCACGTGATGAT	0.2
GGGGACACGTGGTGCT	-0.06
TGGGTCACGTGCGGAA	-0.02
TCGTTCACGTGGATTT	0.22
GCTAACACGTGTAGGT	0.17
AGGGGCACGTGGTGCT	-0.23
AGTGACACGTGGAGCG	-0.13
TAGGTCACGTGTCGCT	0.11
GGTCTCACGTGGGTGT	0.11
AGTCACACGTGGGAGG	-0.05
TTATGCACGTGAGATC	0.18
GAGGACACGTGAATTG	0.37
TTTTACACGTGTTGGT	0.09
TGTTTCACGTGGTGTT	0.22
TAGCGCACGTGTGGGT	0.03
TTTATCACGTGTAGAG	0.04
GCAGTCACGTGTTTGA	0.22
GGAGTCACGTGGATGG	0.17
TAACTCACGTGTGGAT	0.23
